Experimental findings from ChEMBL document CHEMBL4888484, “Replenishing the malaria drug discovery pipeline: Screening and hit evaluation of the MMV Hit Generation Library 1 (HGL1) against asexual blood stage Plasmodium falciparum ,using a nano luciferase reporter read-out” (2022) are described below.

Out of some 150,000 compounds screened, about 540 (0.36%) showed an effect of 50% or more. Some of the results follow.

The assay concerns Plasmodium falciparum. In words: Primary screen in NF54 nanoGlo assay, in single point, at 2uM, 72h; a lower Z score goes with more inhibition. It is filed as functional, Erythrocyte. To be noted: timepoint 72 hour.
In general, % Inhibition refers to the drop in the measured response relative to a control, in per cent. In the case of `Cc1noc(C)c1CN1C(=O)[C@@H]2CC[C@H]1CN(c1nc3ccccc3s1)C2`, the “% Inhibition” value was determined as 0% and the Z score is 0.03.

For `CCc1cc(C(=O)NCc2cc(C)nn2C)on1`, the “% Inhibition” value was -17% and the Z score came to 1.8.

With `OCCN(CCO)C[C@H](O)COc1c(Br)cc(Br)cc1Br`, the “% Inhibition” value was -7% and the Z score stood at 1.05.

With `Cc1cc(C(=O)N2CCOC[C@@H](C3CCC3)C2)on1`, the “% Inhibition” value was 3% and the Z score is reported as -0.39.

As to `O=C(Nc1n[nH]c(Cc2ccc(F)cc2)n1)[C@H](c1ccccc1)n1cnnn1`, the “% Inhibition” value is -8% and the Z score was determined as 1.12.

In the case of `OC1(c2cccc(Cl)c2)CCC(NCc2cnc3n2CCCC3)CC1` (configuration not stated), the “% Inhibition” value was -4% and the Z score is reported as 0.8.

As for `Nc1c(NC(=O)Nc2ccc(F)cc2)c(-c2ccccc2)nn1-c1ccccc1Cl`, the “% Inhibition” value is reported as 3% and the Z score is reported as -0.52.

Consider `CC(C)[C@@]1(O)CN(Cc2cccc(OCCO)c2)C[C@@H]1C`, for which the “% Inhibition” value is recorded as -16% and the Z score stood at 1.38.

As to `CN(C)CCNC(=O)c1ccc2c(c1)n(CC1CC1)c(=O)n2C1CCCCC1`, the “% Inhibition” value amounted to 4% and the Z score was -0.67.

In the case of `CC(=O)N1CC[C@H](c2nnc(C(C)(C)C)o2)C1`, the “% Inhibition” value was found to be 11% and the Z score is on record as -1.28.

Consider `CC(C)CC(=O)Nc1ccc2c(c1)C(N1CCC(C)CC1)=Nc1ccccc1O2`, for which the “% Inhibition” value came out at 31% and the Z score is on record as -4.21.

Regarding `Cc1nc2c(C)cccc2cc1C(=O)N1CC[C@H](CS(N)(=O)=O)C1`, the “% Inhibition” value is -23% and the Z score stood at 2.43.

Turning to `O=C(Nc1cc(C(F)(F)F)ccc1N1CCOCC1)c1cccc(S(=O)(=O)N2CCOCC2)c1`, the “% Inhibition” value was found to be 4% and the Z score is on record as -0.72.

Regarding `Cc1cc(C)c2c(CC(=O)N3CCc4nocc4C3)coc2c1C`, the “% Inhibition” value is -1% and the Z score is 0.09.

Turning to `C[C@@H](C(=O)N1CC(=O)Nc2ccccc21)N1CCN(Cc2ccc3c(c2)CCO3)CC1`, the “% Inhibition” value is reported as -5% and the Z score is listed as 0.94.

As to `COc1ccc(C(=O)NCc2cnc(C)cn2)cc1OC1CCN(C(C)C)CC1`, the “% Inhibition” value is recorded as -14% and the Z score was 1.29.

In the case of `CNS(=O)(=O)CCNC(=O)Nc1ccc(Cl)cc1C(F)(F)F`, the “% Inhibition” value is recorded as 4% and the Z score is given as -0.65.

Regarding `COCc1cc(O)n2ncc(S(=O)(=O)c3ccccc3)c2n1`, the “% Inhibition” value is -3% and the Z score was 0.32.

Regarding `Cc1cccc(S(=O)(=O)NCC(C)(C)C[C@H](C)O)c1Cl`, the “% Inhibition” value is listed as 3% and the Z score is on record as -0.45.

For `Cc1nc2ccccc2c(=O)n1C1CCCCCC1`, the “% Inhibition” value was -4% and the Z score was 0.59.

Take `Cc1nc(CN(CC2CCN(C3Cc4ccccc4C3)CC2)C[C@H]2CCCO2)c[nH]1`: the “% Inhibition” value is reported as -4% and the Z score is reported as 0.38.

In the case of `COCC(=O)N[C@@H]1CN(C(=O)c2cccc3cn[nH]c23)C[C@H]1c1ccnn1C`, the “% Inhibition” value came out at 4% and the Z score is on record as -0.51.

For `Cc1cc(C)c(C(=O)NC2CN(Cc3ccccc3)CCC2CO)[nH]1` (configuration not stated), the “% Inhibition” value was -6% and the Z score is on record as 0.97.

Turning to `COC(=O)C1CC(Oc2ccccc2F)CN1C(=O)CCc1c(C)noc1C` (configuration not stated), the “% Inhibition” value is on record as -2% and the Z score is on record as 0.39.

Consider `Cc1cccc2c1OC[C@@H](NC(=O)N1CCC(CS(C)(=O)=O)CC1)C2`, for which the “% Inhibition” value is listed as -6% and the Z score is reported as 0.71.

Take `Cc1cnc(NC(=O)c2ccc3ncoc3c2)c(Br)c1`: the “% Inhibition” value is on record as 38% and the Z score was -1.37.

On to `O=C(Nc1ccc(Cl)cc1)Nc1ccc(N2CCN(Cc3ccccc3)CC2)c(C(=O)NC2CCCCC2)c1`, for which the “% Inhibition” value is 9% and the Z score was -1.52.

For `Cc1nsc2ncc(C(=O)N3CCCC3)c(N3CCC(C(=O)Nc4ccccc4C(F)(F)F)CC3)c12`, the “% Inhibition” value amounted to 10% and the Z score is recorded as -1.68.

For the compound `COc1ccc(OC)c(N2CCN(C(=O)c3ccccc3Cl)[C@@H](C)C2=O)c1`, the “% Inhibition” value is given as -13% and the Z score is given as 2.33.

As to `O=C(CC1CCCCC1)NC1CCN(c2ccc3nccn3n2)CC1`, the “% Inhibition” value is 1% and the Z score is reported as -0.14.

`CO[C@H]1COC[C@H]1NC(=O)N1CCS(=O)(=O)CC1C1CCC1` (some centres not stated): the “% Inhibition” value is listed as -7% and the Z score is 1.34.

With `Fc1ccc2c(c1)CCN(Cc1nc(C3CC3)no1)C2`, the “% Inhibition” value is given as -7% and the Z score was determined as 0.81.

For `COc1cccc2c1CCC[C@H](Nc1ncnc3c1cnn3C)C2`, the “% Inhibition” value is -2% and the Z score is listed as 0.36.

Consider `CC(C)Oc1ccc(N2C[C@@H](C(=O)NCCc3cnccn3)CC2=O)cc1`, for which the “% Inhibition” value was -1% and the Z score came out at 0.15.

`CC#CC[C@@H](CO)NCc1ccc(Cl)s1`: the “% Inhibition” value is -13% and the Z score worked out at 1.84.

On to `C[C@@H](c1ccc(S(C)(=O)=O)cc1)n1ccnc1-c1cc2ccccc2o1`, for which the “% Inhibition” value is -9% and the Z score is listed as 1.54.

As to `O=C(NC[C@H]1CCCOC1)c1ccc(-c2cc(O)c(F)c(F)c2)cc1`, the “% Inhibition” value is -7% and the Z score worked out at 1.27.

Turning to `COc1ccc(OC)c([C@H](C)NC(=O)c2ncoc2-c2ccco2)c1`, the “% Inhibition” value is on record as -10% and the Z score came out at 1.4.

As for `CCOc1ccc(NC(=O)N2CCC3(CC2)C(=O)N(CC(=O)NCc2ccccc2)CN3c2ccccc2)cc1`, the “% Inhibition” value is given as -9% and the Z score is reported as 0.81.

Consider `O=C1CC[C@@]2(CCCO2)CCN1Cc1ccccn1`, for which the “% Inhibition” value is given as -10% and the Z score was found to be 1.96.

For the compound `O=C(c1ccccc1)N(Cc1csc(COc2ccc(Cl)cc2)n1)C1CC1`, the “% Inhibition” value is -5% and the Z score was 0.6.
